The numbers were not newly measured in PMC9322071, “Computer-Aided Design and Synthesis of (Functionalized quinazoline)–(α-substituted coumarin)–arylsulfonate Conjugates against Chikungunya Virus” (International Journal of Molecular Sciences, 2022), which cites them from elsewhere.

The conditions of this series: cited from earlier work.

In the case of `COC(=O)C[C@](O)(CCC(C)(C)O)C(=O)O[C@@H]1C(OC)=C[C@]23CCCN2CCc2cc4c(cc2[C@H]13)OCO4` [Harringtonine, harringtonine], the cytotoxicity result is “minimal cytotoxicity”.
